Results as given in ChEMBL document CHEMBL4888484, “Replenishing the malaria drug discovery pipeline: Screening and hit evaluation of the MMV Hit Generation Library 1 (HGL1) against asexual blood stage Plasmodium falciparum ,using a nano luciferase reporter read-out” (2022).
Hit rate of the full screen: of about 150,000 compounds, about 540 (0.36%) showed an effect of 50% or more. This is one part of the list.

Test system: Plasmodium falciparum
Assay: Primary screen in NF54 nanoGlo assay, in single point, at 2uM, 72h; a lower Z score goes with more inhibition
Format: functional, Erythrocyte
Conditions: timepoint 72 hour

SMILES | % Inhibition | Z score
c1ccc2c(c1)CC[C@@H]2n1ccnc1-c1ccncc1 | 11% | -1.44
COc1cc(Br)ccc1CN[C@H](C(N)=O)C(C)(C)C | -14% | 1.5
C#CC[C@H](OC(=O)c1ccc(NC(C)=O)cc1)C1CC1 | -3% | 0.41
O=C1NC(c2ccc(NC(=O)c3cccc4ccccc34)cc2)(c2ccc(NC(=O)c3cccc4ccccc34)cc2)c2ccccc21 | 23% | -3.32
CCOc1ccc(C(=O)N/C(=N/c2cc(C)cc(C)c2)N2CCN(Cc3ccccc3F)CC2)cc1 | -3% | 0.49
Cc1nnc(NC(=O)CCc2cccnc2)s1 | -3% | 0.45
Cc1ccnn1CC(=O)N1CC(=O)N(c2cccc(Cl)c2)C[C@@H]1C | -1% | 0.08
CCc1nnc(-c2cccc(-n3cnnc3)c2)[nH]1 | -22% | 2.84
NC(=O)C1(NC(=O)Nc2ccccc2-c2nnco2)CCCC1 | 4% | -0.7
COc1ccc(S(=O)(=O)Nc2nnc(CC3CCCC3)o2)cn1 | -4% | 0.69
COc1ccc(Oc2c(CN(CC3CC3)C(=O)C3CCC3)c(-c3ccccc3)nn2C)cc1 | 6% | -0.76
CC(C)CN1C(=O)C2(CCCC2)N[C@@H]1c1cscn1 | -13% | 1.35
CC(C)(C)n1nnc(CNc2cc(Cl)cc(F)c2C(N)=O)n1 | -4% | 0.67
O=C(Cn1cccn1)NC[C@H]1CCCN(c2ccncc2)C1 | 0% | 0
OC1CCCC1NCc1ccc(Br)o1 (stereo unspecified) | -8% | 1.2
CC(=O)Nc1ccc(-c2c(-c3ccccc3)ncn2CCc2c[nH]cn2)cc1 | -2% | 0.33
O=C(c1cccc(-c2cnc(=O)[nH]c2)c1)N1CCCN2CCC[C@H]2C1 | -19% | 1.87
CCn1c(-c2ccc(-n3cnnn3)cc2)nnc1N1CCN(C(=O)OC(C)(C)C)[C@@H](C)C1 | -7% | 0.74
CCN(CC)C(=O)CC[C@@H]1CNC(=O)[C@@H]2C[C@H](NCc3ccc(F)cc3)CN12 | 33% | -3.72
CCOc1ccc(-c2cc(NC(=O)c3cc(-c4cccnc4)nc4ccccc34)on2)cc1OCC | 44% | -9.02
O=C(O)C1CC=CCC1C(=O)NC1CCCC1 (stereo unspecified) | -12% | 1.48

SMILES | % Inhibition | Z score
CCN(CCNC(=O)CCN1N=C(c2ccccc2)CCC1=O)c1ccccc1 | -5% | 0.74
CC1(C)CN(C(=O)c2cc(Cc3ccccc3)n[nH]2)CCN1 | 11% | -1.36
COC(=O)C1CCN(Cc2ccc3c(c2)CN(C(=O)c2cnn(Cc4ccccc4)c2)CCO3)CC1 | 2% | -0.42
Cc1nc(CNC(=O)[C@@H]2CCCO2)cs1 | -1% | 0.15
Cc1ccc(-n2nc(C(=O)NCC3CC3)c(=O)n(Cc3ccccc3)c2=O)cc1F | -17% | 1.47
CC1=NS(=O)(=O)N(C)C=C1C(=O)NC1CCCCC1 | -17% | 3.14
CC(C)Cn1cc(C(F)F)c(C(=O)NC2(C(=O)O)CCCC2)n1 | -8% | 0.68
CCc1nnc2c(=O)n(CC(=O)Nc3ccccc3C)c3ccccc3n12 | 0% | 0
Cc1nc(N(C)C)nc(NCCc2nc3ccccc3c(=O)[nH]2)c1C | 3% | -0.54
COC(=O)c1ccccc1N(C)C(=O)c1ccc(Cl)c(S(=O)(=O)N2CCCCCC2)c1 | 30% | -3.42
Cc1onc(C(=O)N2CCC3(CC2)CC[C@]3(C)O)c1COc1ccccc1 | -15% | 1.89
CCN1CC[C@H](CNS(=O)(=O)c2ccc3[nH]cnc3c2)C1 | -9% | 1.22
COCC(O)CN1CCCC(C(C)C)CC1 (stereo unspecified) | -5% | 0.7
CCc1cc(NC(=O)C[C@H]2CCCS(=O)(=O)C2)n(C)n1 | -11% | 1.91
CCc1nn(C)cc1NC(=O)N[C@H](CO)C(C)(C)C | -7% | 1.35
O=C(Cc1noc2ccccc12)Nc1nc2ccccc2[nH]1 | -16% | 2.14
CCCC(C)C1CCCN1C(=O)C(=O)Nc1cnc(CC)nc1 (stereo unspecified) | -8% | 0.88
CO[C@@H](CNC(=O)c1ccc(C(C)C)nc1)C1CC1 | -3% | 0.61
O=C(Nc1nnc([C@H]2CC(=O)N(c3ccc(OC(F)(F)F)cc3)C2)o1)c1cccc(F)c1 | -4% | 0.6
C[C@H]1Cc2cc(CN3CCC(C(=O)O)(n4cccn4)CC3)ccc2O1 | 4% | -0.76
CCN1CCN(C(=O)CCc2nnc(CCc3ccc(OC)cc3)o2)[C@@H](C)C1=O | -9% | 1.46

SMILES | % Inhibition | Z score
CC(C)=CC1C(C(=O)N(C)CC2COc3ccccc3O2)C1(C)C (stereo unspecified) | -4% | 0.45
COc1cc(C(=O)NCCc2ccc(Cl)cc2)ccc1OCC(=O)N1CCOCC1 | -15% | 1.83
O=C(NCc1cc2n(n1)CCCO2)[C@H]1CCc2[nH]nc(C(F)(F)F)c2C1 | 1% | -0.22
COc1ccc(CN(C)C(=O)NC2CCCCCC2)cc1O | -13% | 1.31
FC(F)(F)c1ccc2c(c1)nc1n2CCCC1 | -4% | 0.58
Cn1c(C(F)(F)F)nn(C2CCN(C(=O)c3ccncc3F)CC2)c1=O | -14% | 1.55
O=C(NC1CCCCCC1)[C@H]1CC(=O)N(c2cccc(-c3noc(-c4cccs4)n3)c2)C1 | -1% | 0.17
O=C(NCc1ccccn1)[C@H]1CCCN(c2nnc3ccc(C(F)(F)F)cn23)C1 | -4% | 0.66
COc1cncc(S(=O)(=O)N(c2nc3ccccc3o2)C2CC2)c1 | -3% | 0.53
COc1ccc([C@@]2(CC(=O)NCc3nc4cc(F)ccc4[nH]3)CC(=O)N(C3CCCC3)C2=O)cc1 | -8% | 1.52
CCc1ccc(NC(=O)Cn2nc3c(N4CCN(c5ccc(C)cc5)CC4)nccn3c2=O)cc1 | 1% | -0.12
CCOc1ccc2c(c1)NC(=O)C[C@H]2c1ccc(OC)nc1 | -6% | 1.03
NC(=O)CNC(=O)c1coc(NC(=O)c2ccccc2)n1 | -8% | 1.25
Clc1cc(Cl)cc(-c2ncccn2)c1 | 1% | -0.2
Cc1ccc2c(CCC(=O)NC[C@H]3CCC[C@@H]3O)c[nH]c2c1 | -21% | 3.62
O=C(Nc1cnccn1)c1ccncc1 | -11% | 1.22
CN(C(=O)CC[C@H]1CCCOC1)c1nc2ccccc2n1C | -10% | 1.23
Cc1c(-c2ccc(F)cc2)[nH]c2ccc(CNc3nccc(N(C)C)n3)cc12 | 29% | -4.59
CN(C(=O)[C@H]1CCCN(C2CCN(Cc3ccncc3)CC2)C1)C1CCCCC1 | -4% | 0.54
CCCCNC(=O)N1CC(C(=O)NCc2cccnc2)CCC1c1ccccc1 (stereo unspecified) | 1% | -0.18
Cc1cnc(C(=O)N[C@H]2CCC(=O)N(C)C2)cn1 | -10% | 1.6

SMILES | % Inhibition | Z score
O=C(NC[C@](O)(c1ccoc1)c1ccco1)c1ccco1 | -5% | 1.01
O=C(CCCC(=O)N1CC[C@@](O)(C(F)F)C1)NCc1ccccc1 | -12% | 1.59
O=C(O)[C@H]1CC[C@@H]1C(=O)Nc1scnc1-c1ccccc1 | -16% | 2.59
O=C(Cc1ccc(Cl)s1)N1CCC[C@H]1Cn1cc(C2CC2)nn1 | -11% | 0.92
CCc1ccc(CN2CCC3(CC2)[C@H](O)C[C@@H]3O)o1 | -1% | 0.27
O=C(O)c1csc([C@@H]2CCCN2c2ncc(C(F)(F)F)s2)n1 | -10% | 1.39
COc1ccc(C)cc1S(=O)(=O)NC1CC(=O)N(C2CC2C)C1 (stereo unspecified) | -1% | 0.12
CC(=O)Nc1ccc(N)cc1C(F)(F)F | -15% | 1.97
CNC(=O)c1nc(-c2ccccc2)n2c1CCN(C(=O)c1ccc(OC)nc1)CC2 | -16% | 1.89
O=C(NCc1cccnc1-n1cnc2ccccc21)c1ccoc1 | -7% | 0.97
Cc1ccc(N2CCCN(Cc3ccccc3C)C2=O)c(NC(=O)Cc2ccc(F)cc2)c1 | 9% | -1.09
CN1C(=O)C[C@H](N2CCN(c3ncccn3)CC2)C1=O | 0% | -0.03
C[C@@H]1NCCN=C1NC(C)(C)CC(C)(C)C | 5% | -0.67
C[C@@]1(C(=O)N2CCN(c3ccccc3F)CC2)Oc2ccccc2NC1=O | 1% | -0.16
CC1=CCN(C(=O)c2ccc3c(c2)C[C@H](C)O3)CC1 | -5% | 0.82
O=C1NCCC[C@@H]1Nc1nc(-c2ccccc2)nc2ccccc12 | -3% | 0.54
CN1CCC[C@H](CN(C)Cc2cccc(-c3cccnc3)c2)C1 | -5% | 0.46
CC(C)Oc1ccc(-c2nc(C(=O)NC3CCOC(C4CC4)C3)cs2)cc1 (stereo unspecified) | -9% | 1.05
CCCc1nnc(N[C@@H]2C[C@@H](C(=O)NC)N(Cc3cccc(F)c3)C2)s1 | -8% | 1.64
COc1ccc(-c2nc(NC3CC3)nc3nn(-c4ccc(Cl)c(Cl)c4)c(N)c23)cc1OC | -4% | 0.66
